Target: IFNβ (UniProt P01574 22-187)
Assay: cell-based or functional assay

IFNβ, sequence (P01574 22-187 limits assumed): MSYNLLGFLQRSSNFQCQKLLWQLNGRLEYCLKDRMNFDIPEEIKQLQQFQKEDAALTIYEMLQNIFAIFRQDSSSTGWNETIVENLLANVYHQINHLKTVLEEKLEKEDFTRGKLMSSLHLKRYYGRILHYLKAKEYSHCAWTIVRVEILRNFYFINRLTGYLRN

B1: RSLV 601-604 soluble interferon receptor (heterodimer of RSLV-601 and RSLV-604) (Fc fusion)
chain 1: KNLKSPQKVEVDIIDDNFILRWNRSDESVGNVTFSFDYQKTGMDNWIKLSGCQNITSTKCNFSSLKLNVYEEIKLRIRAEKENTSSWYEVDSFTPFRKAQIGPPEVHLEAEDKAIVIHISPGTKDSVMWALDGLSFTYSLVIWKNSSGVEERIENIYSRHKIYKLSPETTYCLKVKAALLTSWKIGVYSPVHCIKTTVENELPPPENIEVSVQNQNYVLKWDYTYANMTFQVQWLHAFLKRNPGNHLYKWKQIPDCENVKTTQCVFPQNVFQKGIYLLRVQASDGNNTSFWSEEIKFDTEIQAFLLPPVFNIRSLSDSFHIYIGAPKQSGNTPVIQDYPLIYEIIFWENTSNAERKIIEKKTDVTVPNLKPLTVYCVKARAHTMDEKLNKSSVFSDAVCEKTKPGNTSKGGGGSGGGGSGGGGSGGGGS[here human IgG1 Fc with C220S P238S P331S T350V T366L K392L T394W (EU numbers) without letters]
chain 2: ISYDSPDYTDESCTFKISLRNFRSILSWELKNHSIVPTHYTLLYTIMSKPEDLKVVKNCANTTRSFCDLTDEWRSTHEAYVTVLEGFSGNTTLFSCSHNFWLAIDMSFEPPEFEIVGFTNHINVMVKFPSIVEEELQFDLSLVIEEQSEGIVKKHKPEIKGNMSGNFTYIIDKLIPNTNYCVSVYLEHSDEQAVIKSPLKCTLLPPGQESESAESAKGGGGSGGGGSGGGGSGGGGSEPKSSDKTHTCPPCPAPELLGGSSVFLFPPKPKDTLMISRTPEVTCVVVDVSHEDPEVKFNWYVDGVEVHNAKTKPREEQYNSTYRVVSVLTVLHQDWLNGKEYKCKVSNKALPASIEKTISKAKGQPREPQVYVYPPSRDELTKNQVSLTCLVKGFYPSDIAVEWESNGQPENNYKTTPPVLDSDGSFALVSKLTVDKSRWQQGNVFSCSVMHEALHNHYTQKSLSLSPGK
- IC50, inhibition of IFNβ induced SEAP production in HEK-Blue α/β cells: 20 pM
